Source: PubChem BioAssay (Tox21)
Several values for one entry are separate records, joined by “and”; a condition that tells them apart may be missing. Equal entries are not always repeated. This list was built around the results that the source calls inconclusive (neither active nor inactive); the mix of calls is not that of the screen. Where the call is inconclusive, the potency comes from a doubtful curve fit. Some structures have more than one record in an assay (separate samples or runs), and their calls can disagree. Activity calls are given as the source filed them. Calls come from the whole dose curve; as a rule, active = well fitted inhibition curve with a large enough effect in the repeat runs; inconclusive = weak or mixed curves; inactive = no such curve, though single readings can be large or run the other way. Bridge positions count the residues as written; N and C are the ends. Square brackets hold non-standard residues; d marks the D form. Peptide text beside a SMILES is read from it. hArg = N=C(N)NCCCC[C@H](N)C(=O)O; Mpa = O=C(O)CCS

Each molecule was assayed against Cytochrome P450 1A2 (Homo sapiens) (UniProt P05177) (assay: Cytochrome P450 Family 1 Subfamily A Member 2 (CYP1A2) small molecule antagonists: luciferase reporter qHTS assay (AID 1671199; note: nearly all actives have a fitted effect of over 50% in size)). Settings: P450-Glo CYP1A2 enzyme, luciferin luminescence, 1 h; series mostly up to 115 µM.
Outline: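 Signal from luciferin formed by CYP1A2 from a proluciferin substrate is read as luminescence, expressed in relative luminescence units. Compounds sit with enzyme 10 min, NADPH-driven reaction runs 1 h, all at room temperature.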
Potency is the fitted concentration of half-maximal effect; tags give direction and shape of the fitted curve.

Chain of UniProt P05177 (P05177 whole entry, looked up): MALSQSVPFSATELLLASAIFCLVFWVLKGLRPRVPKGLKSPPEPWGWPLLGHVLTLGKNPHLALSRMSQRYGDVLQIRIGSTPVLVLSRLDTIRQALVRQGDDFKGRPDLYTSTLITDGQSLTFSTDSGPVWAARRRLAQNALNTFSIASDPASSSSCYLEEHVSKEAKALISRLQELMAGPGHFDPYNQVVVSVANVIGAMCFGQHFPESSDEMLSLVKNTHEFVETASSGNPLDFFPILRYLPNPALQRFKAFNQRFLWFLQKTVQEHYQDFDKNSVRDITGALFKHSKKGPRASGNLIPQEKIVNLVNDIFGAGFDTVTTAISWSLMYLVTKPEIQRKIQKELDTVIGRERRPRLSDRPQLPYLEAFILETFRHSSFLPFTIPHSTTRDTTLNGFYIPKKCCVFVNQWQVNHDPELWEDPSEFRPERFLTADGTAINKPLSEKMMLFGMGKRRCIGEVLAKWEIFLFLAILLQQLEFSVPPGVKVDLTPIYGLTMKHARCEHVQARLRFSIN

SMILES | Potency
COc1cc([C@H]2Oc3cc([C@H]4Oc5cc(O)cc(O)c5C(=O)[C@@H]4O)ccc3O[C@@H]2CO)ccc1O | active: 35.5 µM and inactive
O=S(=O)(c1ccc(OCc2ccccc2)cc1)c1ccccc1O | inconclusive: 79.6 µM [inhibitor, single point]
CC[C@@H](CO)NCCN[C@@H](CC)CO | inactive
O=[N+]([O-])c1cccc(Cl)c1 | inconclusive: 62.2 µM [inhibitor, partial curve, poor fit]
CCCOC(=O)C(C)O (stereo not drawn) | active: 40.8 µM
COc1cc(/C=C/c2ccccc2)oc(=O)c1 | active: 2.93 µM
O=C(O)CCCCCCCCCC(=O)O | inactive
C=C[Si](OCCOC)(OCCOC)OCCOC | inconclusive: 56.7 µM [inhibitor, partial curve, poor fit]
O=c1[nH][nH]c(=O)c2cc([N+](=O)[O-])ccc12 | inactive
CC(C)(O)CCc1ccccc1 | inconclusive: 39.9 µM [inhibitor, partial curve]
Cc1c(O)cccc1O | inconclusive: 36.4 µM [inhibitor, partial curve]
COC(=O)c1ccccc1O | active: 6.35 µM and inconclusive: 35.6 µM [inhibitor, partial curve]
CCCCCCCCCCCC(=O)OCC(C)OC(=O)CCCCC(=O)O (stereo not drawn) | inconclusive: 30.9 µM [inhibitor, partial curve, poor fit]
CN1CC(=O)N/C1=N/C(=O)Nc1cccc(Cl)c1 | active: 20.4 µM
COC(=O)CC(=O)OC | inconclusive: 65.9 µM [inhibitor, partial curve] and inactive
C=CC(C)(CCC=C(C)C)OC=O (stereo not drawn) | inconclusive: 71 µM [inhibitor]
NC(=O)c1ccc([N+](=O)[O-])cc1 | active: 39.8 µM
COC(C)=O | inconclusive: 64.6 µM [inhibitor, partial curve]
CCCc1ccccc1 | inactive

SMILES | Potency
CCCCCCCCCCCCCCN(C)C | inconclusive: 15.2 µM [inhibitor, partial curve]
O=S(=O)(Cl)c1c(Cl)cccc1Cl | inactive
CCCCCCCC/C=C\CCCCCCCC(=O)O | inconclusive: 89.9 µM [inhibitor, partial curve, poor fit]
CC(C)=CCOc1ccc(/C=C/C(=O)c2ccc(OCC=C(C)C)cc2OCC(=O)O)cc1 | inactive
NC(=O)[C@@H]1CSSCCC(=O)N[C@@H](CCCCN=C(N)N)C(=O)NCC(=O)N[C@@H](CC(=O)O)C(=O)N[C@@H](Cc2c[nH]c3ccccc23)C(=O)N2CCC[C@H]2C(=O)N1 ([Mpa][hArg]GDWPC-NH2; disulfide 1-7) | inactive
CC(C)N1C(=O)c2ccccc2C1=O | active: 35.6 µM
O=C(O)CCC(=O)c1ccc(-c2ccccc2)cc1 | inactive
O=C(O)c1ccccc1C(=O)O | inconclusive: 65.3 µM [inhibitor, partial curve] and inconclusive: 41.1 µM [inhibitor, partial curve]
CCCOc1ccc2c(c1)CC[C@@H]1[C@@H]2CC[C@]2(C)C(OC)CC[C@@H]12 (stereo partly drawn) | inconclusive: 27.5 µM [inhibitor, partial curve]
CCNc1ccccc1 | active: 32.3 µM and inactive
CCOCC(O)COc1ccc(NC(=O)CC[S+](C)C)cc1 (stereo not drawn) | inconclusive: 27.5 µM [inhibitor, partial curve]
CCCCCCCCCCCCCO | inactive and active: 26.1 µM
Cc1ccc2nc(N)[nH]c(=O)c2c1Sc1ccncc1 | active: 2.88 µM
CCOC(=O)[C@H](CCc1ccccc1)N[C@@H](C)C(=O)N1C(=O)N(C)C[C@H]1C(=O)O | inactive
CCCSSCCC | inconclusive: 71 µM [inhibitor, partial curve, poor fit]
COc1cc(Nc2c(C#N)cnc3cc(OCCCN4CCN(C)CC4)c(OC)cc23)c(Cl)cc1Cl | inactive
C[C@@H]1[C@H](O)[C@@H](C)/C=C/C=C\C=C\C=C\C=C\C=C\C=C\[C@H](O[C@@H]2O[C@H](C)[C@@H](O)[C@H](N)[C@@H]2O)C[C@@H]2O[C@](O)(C[C@@H](O)C[C@@H](O)[C@H](O)CC[C@@H](O)C[C@@H](O)CC(=O)O[C@H]1C)C[C@H](O)[C@H]2C(=O)O (stereo in doubt) | inconclusive: 71 µM [inhibitor, partial curve, poor fit]
O=C(O)CNC(=O)c1ccccc1I | inconclusive: 20.4 µM [inhibitor, partial curve]
CCN(CC)C(=O)N(CC)CC | inconclusive: 39.9 µM [inhibitor, partial curve]
